Source: PMC12390733
Results are given in words; binding and its absence hold for the method and conditions named. In cells and extracts the contact can be indirect. Some binding calls cover weakened binding; strength is not graded here. For some of these results: Tags and fused reporters may be left off the sequences shown.

Sequences of proteins named here, by UniProt entry; tags and fusion partners are left off. Residues count along the entry.
UniProt P0C6X1, residues 898-2484: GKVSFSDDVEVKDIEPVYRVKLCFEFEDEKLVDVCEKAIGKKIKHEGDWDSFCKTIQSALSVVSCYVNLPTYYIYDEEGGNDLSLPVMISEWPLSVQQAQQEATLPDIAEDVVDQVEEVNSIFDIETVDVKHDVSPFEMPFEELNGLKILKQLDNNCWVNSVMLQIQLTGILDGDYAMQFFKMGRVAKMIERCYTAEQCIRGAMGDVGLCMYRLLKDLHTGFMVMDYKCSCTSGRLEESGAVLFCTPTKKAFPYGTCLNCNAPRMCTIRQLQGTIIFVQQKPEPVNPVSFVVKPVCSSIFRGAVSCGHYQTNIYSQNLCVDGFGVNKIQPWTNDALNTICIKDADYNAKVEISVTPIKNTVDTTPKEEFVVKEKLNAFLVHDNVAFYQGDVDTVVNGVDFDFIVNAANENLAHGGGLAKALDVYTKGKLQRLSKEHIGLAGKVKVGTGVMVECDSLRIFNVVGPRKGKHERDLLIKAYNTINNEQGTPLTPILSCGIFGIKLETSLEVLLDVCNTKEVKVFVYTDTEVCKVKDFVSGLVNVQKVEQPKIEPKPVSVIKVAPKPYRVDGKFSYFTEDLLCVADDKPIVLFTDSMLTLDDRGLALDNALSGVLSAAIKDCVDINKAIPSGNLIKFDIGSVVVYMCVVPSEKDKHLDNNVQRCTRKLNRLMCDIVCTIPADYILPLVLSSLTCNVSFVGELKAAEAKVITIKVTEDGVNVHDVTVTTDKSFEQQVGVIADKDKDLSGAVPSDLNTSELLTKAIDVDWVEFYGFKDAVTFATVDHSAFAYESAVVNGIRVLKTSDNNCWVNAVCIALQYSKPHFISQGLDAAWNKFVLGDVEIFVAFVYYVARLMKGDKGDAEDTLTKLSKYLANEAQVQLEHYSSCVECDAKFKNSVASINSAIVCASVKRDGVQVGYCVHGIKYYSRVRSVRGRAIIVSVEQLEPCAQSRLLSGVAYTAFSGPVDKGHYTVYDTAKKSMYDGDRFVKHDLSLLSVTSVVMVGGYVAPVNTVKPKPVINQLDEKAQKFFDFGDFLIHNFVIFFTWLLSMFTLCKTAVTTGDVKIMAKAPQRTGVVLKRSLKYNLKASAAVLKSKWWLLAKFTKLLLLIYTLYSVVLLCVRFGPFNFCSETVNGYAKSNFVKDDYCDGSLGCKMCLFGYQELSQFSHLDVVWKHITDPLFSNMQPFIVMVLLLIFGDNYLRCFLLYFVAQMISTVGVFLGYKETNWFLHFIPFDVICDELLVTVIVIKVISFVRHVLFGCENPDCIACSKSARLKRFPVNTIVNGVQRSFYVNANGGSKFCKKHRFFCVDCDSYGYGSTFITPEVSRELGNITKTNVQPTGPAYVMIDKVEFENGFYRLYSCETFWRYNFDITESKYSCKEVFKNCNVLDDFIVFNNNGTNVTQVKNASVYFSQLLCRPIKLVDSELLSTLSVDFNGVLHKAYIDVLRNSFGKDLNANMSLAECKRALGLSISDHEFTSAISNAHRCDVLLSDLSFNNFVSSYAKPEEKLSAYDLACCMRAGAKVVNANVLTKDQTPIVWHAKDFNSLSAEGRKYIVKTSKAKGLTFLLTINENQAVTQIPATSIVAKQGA

Legend:
[1] = target: GFP-tagged SARS-CoV-2 nonstructural protein 3 (NSP3) (SARS-CoV-2) (UniProt P0DTD1); assay: pull-down; only the binder purified
[2] = target: SARS-CoV-2 NSP3 made in VLP-infected cells (SARS-CoV-2) (UniProt P0DTD1); assay: co-IP
[3] = target: SARS-CoV-2 NSP8 made in VLP-infected cells (SARS-CoV-2) (UniProt P0DTD1); assay: co-IP
[4] = target: HCoV-229E NSP3 (HCoV-229E) (UniProt P0C6X1); assay: co-IP

B1: His-tagged DNAJC11 protein, purified (protein, UniProt Q9NVH1 1-559)
chain: MATALSEEELDNEDYYSLLNVRREASSEELKAAYRRLCMLYHPDKHRDPELKSQAERLFNLVHQAYEVLSDPQTRAIYDIYGKRGLEMEGWEVVERRRTPAEIREEFERLQREREERRLQQRTNPKGTISVGVDATDLFDRYDEEYEDVSGSSFPQIEINKMHISQSIEAPLTATDTAILSGSLSTQNGNGGGSINFALRRVTSAKGWGELEFGAGDLQGPLFGLKLFRNLTPRCFVTTNCALQFSSRGIRPGLTTVLARNLDKNTVGYLQWRWGIQSAMNTSIVRDTKTSHFTVALQLGIPHSFALISYQHKFQDDDQTRVKGSLKAGFFGTVVEYGAERKISRHSVLGAAVSVGVPQGVSLKVKLNRASQTYFFPIHLTDQLLPSAMFYATVGPLVVYFAMHRLIIKPYLRAQKEKELEKQRESAATDVLQKKQEAESAVRLMQESVRRIIEAEESRMGLIIVNAWYGKFVNDKSRKSEKVKVIDVTVPLQCLVKDSKLILTEASKAGLPGFYDPCVGEEKNLKVLYQFRGVLHQVMVLDSEALRIPKQSHRIDTDG
For B1, the binding [1] was “binds”.

B2: endogenous DNAJC11 (Calu-3-N cells) (protein, UniProt Q9NVH1 1-559)
chain: B1 chain
In the case of B2, the binding [2] is reported as “binds” and the binding [3] is reported as “no binding”.

B3: Myc-tagged DNAJC11 (DnaJ homolog subfamily C member 11) (protein, UniProt Q9NVH1 1-559)
chain: B1 chain
For B3, the binding [4] was “no binding”.
